The list shows a part of the results, in another mix than the full data. The list includes weakly bound sequences.
Legend:
Test in all cases: protein-binding microarray (PBM)
Details in all cases: PBM: ~300 nM protein, 6 mM HEPES pH 7.8, 80 mM KCl, 0.5 mM EDTA, 0.5 mM EGTA, 6% glycerol, 35 ng/ul poly-dIdC, 1% milk, 1 h, room temperature; Ap Aiptasia and Nv Nematostella (sea anemones) / Co Capsaspora / Aq Amphimedon (sponge) / Dm Drosophila / Hu human; RHD is the Rel homology domain; high values mean tight binding; most listed sequences are background and not binding sites; double strand, one strand shown
GST-Ap-NF-kB RHD = target: T1, GST-Ap-NF-kB RHD (UniProt A0A913YAJ5)
T1 sequence: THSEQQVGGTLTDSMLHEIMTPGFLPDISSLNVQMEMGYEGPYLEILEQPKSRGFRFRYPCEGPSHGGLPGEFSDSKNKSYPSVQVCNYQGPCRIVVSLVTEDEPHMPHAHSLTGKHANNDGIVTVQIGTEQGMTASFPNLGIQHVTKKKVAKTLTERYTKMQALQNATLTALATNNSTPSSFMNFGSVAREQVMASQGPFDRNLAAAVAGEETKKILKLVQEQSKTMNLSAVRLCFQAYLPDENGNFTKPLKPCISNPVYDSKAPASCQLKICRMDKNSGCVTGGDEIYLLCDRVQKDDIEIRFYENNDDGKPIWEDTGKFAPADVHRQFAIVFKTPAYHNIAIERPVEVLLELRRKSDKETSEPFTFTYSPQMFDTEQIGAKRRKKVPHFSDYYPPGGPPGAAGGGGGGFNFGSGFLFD

[1] = target: T2, GST-Nv-NF-kB (Cys allele) (UniProt E5G601)
T2 sequence: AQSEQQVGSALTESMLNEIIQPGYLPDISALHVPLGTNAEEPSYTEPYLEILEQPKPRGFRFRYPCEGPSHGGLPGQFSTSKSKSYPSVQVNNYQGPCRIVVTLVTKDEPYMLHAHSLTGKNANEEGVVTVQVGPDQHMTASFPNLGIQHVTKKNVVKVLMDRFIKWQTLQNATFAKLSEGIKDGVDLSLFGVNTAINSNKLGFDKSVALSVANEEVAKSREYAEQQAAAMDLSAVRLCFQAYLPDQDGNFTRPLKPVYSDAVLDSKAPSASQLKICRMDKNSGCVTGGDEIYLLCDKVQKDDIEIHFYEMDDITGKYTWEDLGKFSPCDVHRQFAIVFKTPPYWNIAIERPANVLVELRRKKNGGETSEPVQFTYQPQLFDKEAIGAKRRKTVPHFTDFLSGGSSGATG

GST-Co-NF-kB = target: T3, GST-Co-NF-kB (UniProt F1ARL5)
T3 sequence: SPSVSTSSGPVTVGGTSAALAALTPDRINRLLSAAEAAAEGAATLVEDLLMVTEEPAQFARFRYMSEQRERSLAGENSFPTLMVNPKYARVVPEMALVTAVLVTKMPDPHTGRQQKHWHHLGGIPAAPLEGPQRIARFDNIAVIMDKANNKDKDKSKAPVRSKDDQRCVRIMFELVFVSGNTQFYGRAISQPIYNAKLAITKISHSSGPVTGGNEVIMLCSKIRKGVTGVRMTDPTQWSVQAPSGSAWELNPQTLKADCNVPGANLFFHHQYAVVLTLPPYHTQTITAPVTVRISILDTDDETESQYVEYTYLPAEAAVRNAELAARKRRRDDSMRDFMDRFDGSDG

GST-Dm-Relish = target: T4, GST-Dm-Relish (UniProt Q94527)
T4 sequence: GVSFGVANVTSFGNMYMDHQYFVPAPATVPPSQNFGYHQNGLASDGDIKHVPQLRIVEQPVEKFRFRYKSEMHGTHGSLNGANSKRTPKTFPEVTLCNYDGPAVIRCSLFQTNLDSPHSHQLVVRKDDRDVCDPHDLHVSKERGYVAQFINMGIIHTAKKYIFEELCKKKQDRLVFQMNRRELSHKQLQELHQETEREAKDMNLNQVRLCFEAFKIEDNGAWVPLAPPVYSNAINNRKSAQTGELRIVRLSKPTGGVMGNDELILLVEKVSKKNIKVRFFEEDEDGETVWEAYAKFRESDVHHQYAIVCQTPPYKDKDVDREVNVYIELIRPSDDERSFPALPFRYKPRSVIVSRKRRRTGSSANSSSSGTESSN

GST-Aq-NF-kB = target: T5, GST-Aq-NF-kB (UniProt A9Y5G7)
T5 sequence: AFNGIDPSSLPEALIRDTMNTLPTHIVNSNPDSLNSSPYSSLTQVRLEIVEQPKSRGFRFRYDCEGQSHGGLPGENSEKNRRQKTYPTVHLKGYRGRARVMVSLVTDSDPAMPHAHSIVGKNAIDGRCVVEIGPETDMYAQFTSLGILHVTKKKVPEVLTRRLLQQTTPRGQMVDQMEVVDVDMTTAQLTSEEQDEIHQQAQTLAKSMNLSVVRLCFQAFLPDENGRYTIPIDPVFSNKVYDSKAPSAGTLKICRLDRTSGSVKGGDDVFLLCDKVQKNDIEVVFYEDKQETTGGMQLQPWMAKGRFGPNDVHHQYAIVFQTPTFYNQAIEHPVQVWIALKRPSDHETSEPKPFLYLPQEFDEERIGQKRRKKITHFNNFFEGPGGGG

| Sequence | binding signal (GST-Ap-NF-kB RHD) | binding signal [1] | binding signal (GST-Co-NF-kB) | binding signal (GST-Dm-Relish) | binding signal (GST-Aq-NF-kB) |
| --- | --- | --- | --- | --- | --- |
| CCGATTAACATCAGGAATAAACATGATGTTAATCGGGTCTTGATTCGCTTGACGCTGCTG | -0.804 z-score | 0.308 z-score | -0.313 z-score | 0.112 z-score | -0.236 z-score |
| CCGATTAACATCACGAACTTTCCTGATGTTAATCGGGTCTTGATTCGCTTGACGCTGCTG | -0.351 z-score | -0.669 z-score | -0.215 z-score | -0.0831 z-score | 0.75 z-score |
| CCGATTAACATCAGCGCGATTTCTGATGTTAATCGGGTCTTGATTCGCTTGACGCTGCTG | -0.777 z-score | 0.00338 z-score | -0.659 z-score | -0.517 z-score | -0.75 z-score |
| CCGATTAACATCAACAAACCATTTGATGTTAATCGGGTCTTGATTCGCTTGACGCTGCTG | -0.479 z-score | -0.129 z-score | 0.207 z-score | -0.495 z-score | -0.328 z-score |
| CCGATTAACATCAGGATAGATGGTGATGTTAATCGGGTCTTGATTCGCTTGACGCTGCTG | 0.0685 z-score | -0.0173 z-score | 0.954 z-score | -0.0705 z-score | -0.294 z-score |
| CCGATTAACATCACGGGTCGGATTGATGTTAATCGGGTCTTGATTCGCTTGACGCTGCTG | 0.0354 z-score | 0.479 z-score | 0.65 z-score | 0.254 z-score | 0.115 z-score |
| CCGATTAACATCAAGCTTACTCATGATGTTAATCGGGTCTTGATTCGCTTGACGCTGCTG | -0.558 z-score | -0.061 z-score | -0.635 z-score | -0.685 z-score | -0.518 z-score |
| CCGATTAACATCATGCATCCGTATGATGTTAATCGGGTCTTGATTCGCTTGACGCTGCTG | 0.0371 z-score | -0.582 z-score | -0.853 z-score | -0.679 z-score | -0.307 z-score |
| CCGATTAACATCAGGAATTAACATGATGTTAATCGGGTCTTGATTCGCTTGACGCTGCTG | -0.323 z-score | -0.0529 z-score | -0.168 z-score | 0.621 z-score | 0.0645 z-score |
| CCGATTAACATCAGCGCCTTACCTGATGTTAATCGGGTCTTGATTCGCTTGACGCTGCTG | 0.241 z-score | -0.434 z-score | -0.273 z-score | -0.572 z-score | -0.2 z-score |
| CCGATTAACATCAAAATTTCCAATGATGTTAATCGGGTCTTGATTCGCTTGACGCTGCTG | -0.0902 z-score | -0.265 z-score | -0.264 z-score | 0.542 z-score | 0.714 z-score |
| CCGATTAACATCATGGACGAATTTGATGTTAATCGGGTCTTGATTCGCTTGACGCTGCTG | -0.00435 z-score | -0.109 z-score | 0.362 z-score | -0.408 z-score | -0.199 z-score |
| CCGATTAACATCACCCGGAATTCTGATGTTAATCGGGTCTTGATTCGCTTGACGCTGCTG | 0.819 z-score | 0.00622 z-score | 0.645 z-score | 0.921 z-score | 0.878 z-score |
| CCGATTAACATCATAGTCTTTGTTGATGTTAATCGGGTCTTGATTCGCTTGACGCTGCTG | -0.0861 z-score | -0.672 z-score | -0.08 z-score | -0.638 z-score | -0.283 z-score |
| CCGATTAACATCATTTGACTTGCTGATGTTAATCGGGTCTTGATTCGCTTGACGCTGCTG | -0.257 z-score | -0.223 z-score | -0.151 z-score | -0.682 z-score | -0.426 z-score |
| CCGATTAACATCAGTCTGTCAATTGATGTTAATCGGGTCTTGATTCGCTTGACGCTGCTG | -0.877 z-score | 0.101 z-score | -0.257 z-score | -1.13 z-score | -0.901 z-score |
| CCGATTAACATCACTTTCGGCAATGATGTTAATCGGGTCTTGATTCGCTTGACGCTGCTG | -0.462 z-score | 0.0244 z-score | -0.114 z-score | 0.446 z-score | -0.494 z-score |
| CCGATTAACATCATGATTCTTGCTGATGTTAATCGGGTCTTGATTCGCTTGACGCTGCTG | -0.299 z-score | -0.179 z-score | -0.102 z-score | -0.442 z-score | -0.499 z-score |
| CCGATTAACATCAATGTCGGCCGTGATGTTAATCGGGTCTTGATTCGCTTGACGCTGCTG | 0.191 z-score | -0.141 z-score | -0.704 z-score | -0.234 z-score | -0.336 z-score |
| CCGATTAACATCATGCTCACGCCTGATGTTAATCGGGTCTTGATTCGCTTGACGCTGCTG | -0.895 z-score | -1.06 z-score | -1.14 z-score | -0.76 z-score | -0.738 z-score |
| CCGATTAACATCAATGAGACTTATGATGTTAATCGGGTCTTGATTCGCTTGACGCTGCTG | -0.646 z-score | -0.0816 z-score | -0.355 z-score | -0.41 z-score | -0.507 z-score |
| CCGATTAACATCAGGAAACGCCCTGATGTTAATCGGGTCTTGATTCGCTTGACGCTGCTG | 0.604 z-score | 0.466 z-score | -0.0947 z-score | 0.949 z-score | 3.05 z-score |
| CCGATTAACATCAGTCCGTATTATGATGTTAATCGGGTCTTGATTCGCTTGACGCTGCTG | -0.407 z-score | 0.536 z-score | 0.0673 z-score | 0.0974 z-score | -0.0172 z-score |
| CCGATTAACATCACTGGCTTGAATGATGTTAATCGGGTCTTGATTCGCTTGACGCTGCTG | -0.0857 z-score | -0.91 z-score | 0.0479 z-score | -0.628 z-score | -0.513 z-score |
| CCGATTAACATCACAACGAGCCTTGATGTTAATCGGGTCTTGATTCGCTTGACGCTGCTG | -0.484 z-score | -0.335 z-score | -0.642 z-score | -0.251 z-score | -0.289 z-score |

— paper PMC5700166
